The list shows a part of the results. No stated cut-off is given here; in the data, active = 3.2 or more and inactive = the rest. Only a few entries rise above the background.
target: SHP2 C-SH2 domain E139D; assay: enrichment score (SH2-bound / input frequency) (ratio); bacterial display of known human phosphotyrosine sites (pTyr-Var adds point mutants) read by sequencing; higher = stronger binding; tyrosines were phosphorylated by kinases first; settings: peptide library: pTyr-Var
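Further: displayed peptides selected on beads carrying the immobilized SH2 domain, with library peptides lacking any tyrosine serving as negative controls.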

Enrichment score, inactive:
GEDEPYAEPFA [APBA1_Y183_S184A_YF] 0.367
GLRQSYFVEAQ [APCS_Y142_G141S] 1.04
SWKRRYFLLWA [APBB1IP_Y331_R335W] 0.399
DFSLKYATDIP [APC_Y1183_YF] 0.937
ESKKHYGFSLF [ANXA3_Y295_F291S_YF] 1.03
NQKGKYFNVER [ANAPC4_Y469_R465Q] 0.803
LTFDEYRNISQ [ANXA3_Y216] 1.46
TVDASYYGGRG [ANTXR2_Y380] 0.475
PFSEPYADFGG [APBA1_Y187_YF] 1.27
LTFDEYRNNSQ [ANXA3_Y216_I219N] 0.694
IEPVIDVVQRR [ANOS1_Y217_Y217D] 0.396
FLTQHYDAKPQ [ANG_Y38] 1.03
NLNGKYYKPRA [ANGPTL3_Y417_N418Y] 1.36
DYSLKYATDIP [APC_Y1183] 0.754
RLCQDYDIIGP [ANK1_Y1073_T1075I] 0.667
SFNNKYGMVAQ [APOB_Y276_K273N_YF] 0.715
RASGIYFVPKG [APBB1IP_Y340_YF] 1.39
GEDEPYSEPFA [APBA1_Y183_YF] 0.406

target: SHP2 C-SH2 domain wild-type; assay: as above; settings: peptide library: pTyr-Var

Enrichment score, inactive:
GEDEPYAEPFA [APBA1_Y183_S184A_YF] 0.444
GLRQSYFVEAQ [APCS_Y142_G141S] 0.572
SWKRRYFLLWA [APBB1IP_Y331_R335W] 0.422
DFSLKYATDIP [APC_Y1183_YF] 0.7
ESKKHYGFSLF [ANXA3_Y295_F291S_YF] 0.921
NQKGKYFNVER [ANAPC4_Y469_R465Q] 0.897
LTFDEYRNISQ [ANXA3_Y216] 0.932
TVDASYYGGRG [ANTXR2_Y380] 0.856
PFSEPYADFGG [APBA1_Y187_YF] 0.799
LTFDEYRNNSQ [ANXA3_Y216_I219N] 0.944
IEPVIDVVQRR [ANOS1_Y217_Y217D] 0.515
FLTQHYDAKPQ [ANG_Y38] 0.84
NLNGKYYKPRA [ANGPTL3_Y417_N418Y] 1.23
DYSLKYATDIP [APC_Y1183] 0.799
RLCQDYDIIGP [ANK1_Y1073_T1075I] 0.842
SFNNKYGMVAQ [APOB_Y276_K273N_YF] 0.664
RASGIYFVPKG [APBB1IP_Y340_YF] 1.22
GEDEPYSEPFA [APBA1_Y183_YF] 0.361

target: SHP2 N-SH2 domain L43F; assay: as above; settings: peptide library: pTyr-Var

Enrichment score, inactive:
GEDEPYAEPFA [APBA1_Y183_S184A_YF] 0.36
GLRQSYFVEAQ [APCS_Y142_G141S] 0.858
SWKRRYFLLWA [APBB1IP_Y331_R335W] 0.311
DFSLKYATDIP [APC_Y1183_YF] 0.914
ESKKHYGFSLF [ANXA3_Y295_F291S_YF] 0.636
NQKGKYFNVER [ANAPC4_Y469_R465Q] 0.756
LTFDEYRNISQ [ANXA3_Y216] 0.951
TVDASYYGGRG [ANTXR2_Y380] 0.649
PFSEPYADFGG [APBA1_Y187_YF] 1.12
LTFDEYRNNSQ [ANXA3_Y216_I219N] 0.742
IEPVIDVVQRR [ANOS1_Y217_Y217D] 0.532
FLTQHYDAKPQ [ANG_Y38] 1.02
NLNGKYYKPRA [ANGPTL3_Y417_N418Y] 1.11
DYSLKYATDIP [APC_Y1183] 0.786
RLCQDYDIIGP [ANK1_Y1073_T1075I] 0.649
SFNNKYGMVAQ [APOB_Y276_K273N_YF] 0.806
RASGIYFVPKG [APBB1IP_Y340_YF] 1.68
GEDEPYSEPFA [APBA1_Y183_YF] 0.433

target: SHP2 N-SH2 domain T42A; assay: as above; settings: peptide library: pTyr-Var

Enrichment score, inactive:
GEDEPYAEPFA [APBA1_Y183_S184A_YF] 0.326
GLRQSYFVEAQ [APCS_Y142_G141S] 0.717
SWKRRYFLLWA [APBB1IP_Y331_R335W] 0.382
DFSLKYATDIP [APC_Y1183_YF] 0.946
ESKKHYGFSLF [ANXA3_Y295_F291S_YF] 0.89
NQKGKYFNVER [ANAPC4_Y469_R465Q] 0.62
LTFDEYRNISQ [ANXA3_Y216] 0.732
TVDASYYGGRG [ANTXR2_Y380] 0.569
PFSEPYADFGG [APBA1_Y187_YF] 1.07
LTFDEYRNNSQ [ANXA3_Y216_I219N] 0.865
IEPVIDVVQRR [ANOS1_Y217_Y217D] 0.555
FLTQHYDAKPQ [ANG_Y38] 0.801
NLNGKYYKPRA [ANGPTL3_Y417_N418Y] 1.18
DYSLKYATDIP [APC_Y1183] 0.686
RLCQDYDIIGP [ANK1_Y1073_T1075I] 1.01
SFNNKYGMVAQ [APOB_Y276_K273N_YF] 0.648
RASGIYFVPKG [APBB1IP_Y340_YF] 0.97
GEDEPYSEPFA [APBA1_Y183_YF] 0.302

target: SHP2 N-SH2 domain T52S; assay: as above; settings: peptide library: pTyr-Var

Enrichment score, inactive:
GEDEPYAEPFA [APBA1_Y183_S184A_YF] 0.448
GLRQSYFVEAQ [APCS_Y142_G141S] 0.868
SWKRRYFLLWA [APBB1IP_Y331_R335W] 0.415
DFSLKYATDIP [APC_Y1183_YF] 1.04
ESKKHYGFSLF [ANXA3_Y295_F291S_YF] 0.932
NQKGKYFNVER [ANAPC4_Y469_R465Q] 0.755
LTFDEYRNISQ [ANXA3_Y216] 1.1
TVDASYYGGRG [ANTXR2_Y380] 0.597
PFSEPYADFGG [APBA1_Y187_YF] 0.707
LTFDEYRNNSQ [ANXA3_Y216_I219N] 0.935
IEPVIDVVQRR [ANOS1_Y217_Y217D] 0.542
FLTQHYDAKPQ [ANG_Y38] 0.853
NLNGKYYKPRA [ANGPTL3_Y417_N418Y] 1.02
DYSLKYATDIP [APC_Y1183] 0.797
RLCQDYDIIGP [ANK1_Y1073_T1075I] 0.737
SFNNKYGMVAQ [APOB_Y276_K273N_YF] 0.683
RASGIYFVPKG [APBB1IP_Y340_YF] 1.7
GEDEPYSEPFA [APBA1_Y183_YF] 0.365

target: SHP2 N-SH2 domain wild-type; assay: as above; settings: peptide library: pTyr-Var

Enrichment score, inactive:
GEDEPYAEPFA [APBA1_Y183_S184A_YF] 0.282
GLRQSYFVEAQ [APCS_Y142_G141S] 0.693
SWKRRYFLLWA [APBB1IP_Y331_R335W] 0.312
DFSLKYATDIP [APC_Y1183_YF] 1.16
ESKKHYGFSLF [ANXA3_Y295_F291S_YF] 0.772
NQKGKYFNVER [ANAPC4_Y469_R465Q] 0.62
LTFDEYRNISQ [ANXA3_Y216] 1.24
TVDASYYGGRG [ANTXR2_Y380] 0.592
PFSEPYADFGG [APBA1_Y187_YF] 1.2
LTFDEYRNNSQ [ANXA3_Y216_I219N] 1.07
IEPVIDVVQRR [ANOS1_Y217_Y217D] 0.531
FLTQHYDAKPQ [ANG_Y38] 0.982
NLNGKYYKPRA [ANGPTL3_Y417_N418Y] 1.19
DYSLKYATDIP [APC_Y1183] 0.757
RLCQDYDIIGP [ANK1_Y1073_T1075I] 0.828
SFNNKYGMVAQ [APOB_Y276_K273N_YF] 0.683
RASGIYFVPKG [APBB1IP_Y340_YF] 1.25
GEDEPYSEPFA [APBA1_Y183_YF] 0.367

Reference: the supplement of paper PMC10369915
